From the supplement of paper PMC10126150
Values marked as one replicate rest on one cluster of the flow cell; about a third of the high ones do not repeat.

Test system: ATP
Assay: switch fluorescence ratio, 500 uM ATP over buffer (Cy3 cluster intensity, sum of 5 cycles each) (fold (ratio)); higher = stronger signal-on switching upon ATP binding; sequences stand for … in TCGTCGGCAGCGTCAGATGTGTATAAGAGACAGTTTTTTTTTTTTTTTTTTTTTTTTT…TC
Details: aptamer strand: ATP DNA aptamer (quencher-CACCTGGGGGAGTATTGCGGAGGAAGG + anchor), 100 nM annealed; ATP concentration: 500 uM; one replicate
Method in brief: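 Clusters carrying Cy3-labelled switching strands on a modified Illumina MiSeq flow-cell were annealed to 100 nM quencher-labelled ATP aptamer and imaged in selection buffer. They were imaged again after 15 min with 500 uM ATP at 22 °C, over five buffer/ATP cycles with NaOH stripping and re-annealing in between. For each cluster, the fluorescence ratio is the summed Cy3 intensity of the target cycles divided by that of the buffer cycles, averaged per switch-domain sequence. Clusters outside 100-1000 RFU were left out.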
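Note: ATP exposure 15 min at 22 °C before imaging.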

Sequence	switch fluorescence ratio
ACCCCCATAG	2.71
GAAACGGGGT	0.957
TGCTGAAAC	0.991
AAGTTTAGCC	1.03
TTTAATGTGT	0.964
CGGGAAGCA	0.977
CGGATCGAAG	0.973
TTTGATTCCG	0.965
ATAGCCCTGT	0.961
CGTCTGTCAT	1.04
CGAGATACGG	1.16
TTTTCTTCGC	1.19
GTAAGAGTAC	1.09
TAAGGTCAAG	0.981
CATAAAAAG	1.02
CGCGTTGATG	0.979
TGCGTGGACT	1.26
ATGATCAGTA	0.971
GCTAGCGGCG	1.04
TGAGCTGAGA	0.98
TATAAGCTGA	1.02
GCGTGGGTCT	1.05
GCACCTGTTC	1.07
TTTACATGAC	1.11
GGTGACTTTT	1
GGTTACCGAT	1.04

Sequence	switch fluorescence ratio
GTTAAACTCG	1.05
GGAAAAATGG	0.977
CGTAACTGT	1.04
CCGCGGAATT	0.98
AATATGGTAG	1
GGGGGTGAGA	0.995
GGTACCTCTG	1.04
GTCTGGAGTG	1.02
CAGGGTATGT	0.984
TATTCTCGA	0.991
TGTTGGTCGC	0.972
GGTTGAGCCC	0.988
CGTCCAAAGC	1.73
ACCACATTGG	0.987
TTCGTTGAAG	1.02
TTTTATGTAG	0.999
GCTTTTTTCA	1.01
CTCACAGCTT	1.06
GAGCCGGAGT	1.04
TTAAAAGCGC	0.995
CTGATGATTG	1
GAATTCTCTA	0.973
TGAGTGCTAG	1.13
AAAACGGCCC	1.06
TGGTGTGTGG	0.991
AGGTCCCTTA	0.966

Sequence	switch fluorescence ratio
ACATAAGACT	1.04
TAGTTACTGA	1.09
CCCATTTTCG	1.01
GTTATTGG	0.992
TAATTAGGT	0.995
ATTAGTTAAC	1.05
ATCATGGGTG	1.11
CCAAGAGTGT	1.02
GCGCTGACCA	1.06
AATAGCGCTC	0.979
CCCCATACTT	1.27
GAGGCTACGG	1
AGCATGAGCG	0.856
CCACAATGAA	1.17
GCCTGGTTGC	1.03
GCGAGGTTG	0.99
GGCCCTATGG	1.06
TGATTGGAC	1.04
TAATAAGCGC	0.944
CCCCTATGTC	1
ATAGCGTTT	0.978
AAGCGTTTAG	0.994
AGGTTAGTT	1.01
GGAGGACGCA	1.21
CCGAAGCCCG	1.95
CATTTTCCGA	1.01

Sequence	switch fluorescence ratio
CCATAATCAT	0.987
TACCTTTCGA	1.79
GTTAGGGACT	0.995
CGTGCTATGG	1.04
GGGCCGCACA	1.29
ACGAATGCCC	1.15
CAGGGCGCTT	0.985
GTGGAGTCTT	0.999
ACGTTTGGCG	0.945
AGGTCAGCCA	1.01
ATCGACAGAG	1.04
GTGGAAGCTG	0.958
AGTAAGTGTG	1.02
CGCCTCAACG	1.05
TTACGTACGA	1.58
AGGTTTAGGC	1.03
AGAGAGAGCC	1.01
TTGGCCTCCG	1.18
GAAGGTTGTA	1.01
GCCAAATAGG	1.03
TATCCGTC	0.951
GACGAGTCGT	0.986
CGCGTAGGGA	1.02
AGTATGAGAG	0.975
AATGTGAGGT	1
TGGTACTGCA	1.08

Sequence	switch fluorescence ratio
ACTCGGCGG	1.02
CTGCGAGTGT	1.05
AAACGTAGGT	1.03
ACGGGTGCAG	1.04
AGTTCCCCTG	1.13
TCAGCCGGCG	1.05
TGGCCGGAGG	0.989
GACTGGCTCG	1.1
CACACTGTCC	1.05
AGGCAGGGTA	0.965
TGGCAGTAGT	1.03
GGGAGAATCC	1.04
ACTAGAAGCG	1.01
AGCCGGATAT	0.989
AACTGCCCAT	1.04
TTTATGTAT	0.977
TTGTAAGTGC	1.03
ACGGGGGATC	1
AGTCGCCCTT	1.01
AATCTTTGT	0.972
TCTTTGAGAT	0.959
CGATTGTGCA	0.99
TCCTGGCTGA	1.07
CGGAGGCTCG	0.984
GGATCTCAAG	0.997
CTATCTGACT	0.999

Sequence	switch fluorescence ratio
TAACGACCTC	1.12
AGCTAAGAAA	1.01
AATTTTGAAG	1.02
TTACGATATA	1.05
ACAAATGAG	1.04
TACCGAAGCC	1.9
AAATTTTGCC	0.946
CCATTAAAAA	0.947
GAGCTTCGTA	1.01
ATATGGGGTC	1.04
TTCGGCTCCA	0.979
GGTCATGGTA	1
CATGTTCAGG	1
GAATGTTGCG	0.946
CAGCACATAT	2.44
CTAAGTCTA	0.982
GTTGGCTGGA	1.03
TACTTAGAGT	1
GTGAGGAGCC	0.96
GTGAAGCCGC	1.03
CGTTACCGCC	1.11
GCCCGATTCG	1.06
GAAAGAAAGG	1.01
TACCCGGGGG	1.04
GTCGATGAGA	1.04
ACATGCTTGC	0.992

Sequence	switch fluorescence ratio
GGCCGCATTG	1.66
TTCCTAGGAT	1.06
TTTCGTACAT	1.03
TCAGGGCTTC	1.07
CATACTTTCA	1.02
GTAATCTAGA	1.02
GAGCTTCACG	1.03
TGGCACCGTG	0.981
TCCAAATCAC	1.02
GATGTTGGGG	1.01
TCAACTGACG	1.01
ACGACGATAT	2.11
GTCGCTGTTG	1.01
ATTGTGTGTA	0.941
GCGTAGGTAT	1.01
GGTACGGCCC	0.992
ATGTTAATCC	1.04
TTGTATATCC	1.01
CTCCAATTGA	1.09
CCGCGCTGCG	1.12
GGGAAAGCAG	0.998
CGTGTATTTA	0.987
CTTATAATGC	1.09
CCAGGGCG	1.02
TCATTTTACA	1.01
TGTTGACCG	0.949

Sequence	switch fluorescence ratio
CCTAATATCG	1.03
ACTAAGGCTT	1.1
CTCTGACTAT	1.15
GAAGATTGAG	0.983
GGGACGATGT	0.985
TGGTGCCTGC	0.955
AGGTAGATGT	0.969
CCGCAACGTT	1.72
GTGCACTTAC	1.37
GCGCAAGGCG	1.07
GCCTTAATCA	0.972
AGAAACCCTG	0.986
AGATGGGTAA	1.01
GATCCAAAAA	1.02
AGAAGGGCAT	1.03
GTGGGATCGG	0.993
GACTGCATGC	2.27
TCATGCACG	0.963
AGGCAGAGAA	1.05
